Laboratory results as given in PubChem BioAssay AID1460 (National Center for Advancing Translational Sciences (NCATS), 2008).
The campaign covered roughly 270,000 compounds. About 5,800 (2.1%) were called active. The inconclusive results got no clear call from the source; some entries with a clear call stand among them for comparison. The call rests on the fitted dose curve; in most records, active means well fitted inhibition curve with a large enough effect; inconclusive means small, poorly fitted or top-dose-only effect; inactive means flat fitted curve, though single readings scatter. Where the call is inconclusive, the potency comes from a doubtful curve fit.

biological target: Microtubule-associated protein tau (Homo sapiens) (UniProt P10636); experiment: qHTS for Inhibitors of Tau Fibril Formation, Thioflavin T Binding; settings: recombinant tau K18 P301L (four-repeat tau fragment), heparin-induced fibrillization, ThT fluorescence; series mostly up to 57.4 µM; further: nearly all actives have a fitted effect of over 55% in size
Sequence of UniProt P10636 (P10636 whole entry, looked up, the tested form may be a part): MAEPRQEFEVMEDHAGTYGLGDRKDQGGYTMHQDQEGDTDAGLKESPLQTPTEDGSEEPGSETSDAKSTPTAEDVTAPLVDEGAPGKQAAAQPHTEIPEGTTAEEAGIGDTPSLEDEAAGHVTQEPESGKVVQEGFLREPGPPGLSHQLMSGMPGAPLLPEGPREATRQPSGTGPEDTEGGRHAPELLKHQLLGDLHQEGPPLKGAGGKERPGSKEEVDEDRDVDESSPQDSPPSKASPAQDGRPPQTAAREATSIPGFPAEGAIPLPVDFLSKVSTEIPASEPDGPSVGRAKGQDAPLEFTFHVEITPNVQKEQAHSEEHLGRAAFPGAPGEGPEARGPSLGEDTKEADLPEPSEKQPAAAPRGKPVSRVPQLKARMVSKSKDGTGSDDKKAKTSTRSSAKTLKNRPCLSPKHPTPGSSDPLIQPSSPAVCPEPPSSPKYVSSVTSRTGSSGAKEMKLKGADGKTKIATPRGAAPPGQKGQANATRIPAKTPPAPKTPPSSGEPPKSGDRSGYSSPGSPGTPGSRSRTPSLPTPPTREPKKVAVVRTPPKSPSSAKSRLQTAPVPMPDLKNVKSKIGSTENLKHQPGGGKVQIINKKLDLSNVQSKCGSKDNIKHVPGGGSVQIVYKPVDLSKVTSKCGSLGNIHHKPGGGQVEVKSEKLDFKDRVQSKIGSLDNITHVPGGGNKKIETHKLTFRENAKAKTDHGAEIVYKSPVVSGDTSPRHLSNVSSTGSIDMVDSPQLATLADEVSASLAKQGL
Outline: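 In this qHTS, human K18 P301L tau is incubated with compound and heparin for 6 hr at 37 C, and Thioflavin T fluorescence then reports fibril load.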
Potency means the concentration at half of the fitted maximal effect; tags describe the fitted curve by direction and shape.

| Compound | Potency |
| --- | --- |
| Cc1cccc(OCC(=O)Nc2ccc3nc(SCc4ccccc4)sc3c2)c1 | inconclusive: 1 µM [inhibitor, full curve, poor fit] |
| Cc1ccc(OC(C)C(=O)N2CCN(CCc3ccccn3)CC2)cc1C (stereo unspecified) | inactive |
| Cc1cc(F)ccc1NC(=O)C1CCCN(C(=O)c2cnn(-c3ccccc3)c2-n2cccc2)C1 (stereo unspecified) | inactive |
| CNc1nc(C(=O)O)nc(N2CCOCC2)n1 | inactive |
| CNc1ccc(C2(O)C(=O)c3ccccc3C2=O)cc1 | inactive |
| CC(/C=N/n1c(-c2ccc(Cl)cc2)n[nH]c1=S)=C\c1ccco1 | inconclusive: 14.1 µM [inhibitor, partial curve] |
| O=C(NCc1ccccn1)c1cc(-c2ccc(-c3ccccc3)cc2)nc2ccccc12 | inactive |
| COc1cccc(/C(O)=C/c2nc3ccc(C(=O)NCCc4cccc(C)c4)cc3[nH]c2=O)c1 | inconclusive: 7.94 µM [inhibitor, partial curve] |
| COc1ccc([N+](=O)[O-])cc1NC(=O)Nc1ccc(OC)c(OC)c1 | inconclusive: 2 µM [inhibitor, partial curve] |
| CCCN1C(=O)/C(=C/c2ccc(C)o2)NC1=S | active: 25.1 µM |
| Cc1cc(C)c(NC(=O)C(C)n2nc(C)c3sc4ccccc4c3c2=O)c(C)c1 (stereo unspecified) | inactive |
| COCCCn1c(Cc2csc(Nc3cccc(Cl)c3)n2)nnc1SCC(=O)OC1CCCCC1 | inconclusive: 31.6 µM [inhibitor, single point] |
| C(=N\N1CCN(c2ccccn2)CC1)/c1cccc2ccccc12 | inconclusive: 15.8 µM [inhibitor, partial curve] |
| COC(=O)C1=C(C)OC(N)=C(C#N)C1c1cc(C)sc1C (stereo unspecified) | inactive |
| COc1ccc(OCc2ccc(C(=O)NN)cc2)cc1 | inconclusive: 17.8 µM [inhibitor, partial curve] |
| CCOc1c(OC(C)=O)ccc(/C=C2\N=C(SCC)SC2=O)c1[N+](=O)[O-] | active: 14.1 µM |
| O=[N+]([O-])c1ccccc1NCc1ccccc1Cl | inconclusive: 12.6 µM [inhibitor, partial curve, poor fit] |
| Cc1ccc(-c2n[nH]c(=S)n2/N=C/c2c(C)[nH]n(-c3ccccc3)c2=O)cc1 | inconclusive: 7.94 µM [inhibitor, partial curve] |
| Cc1ccc(NC(=O)Cc2noc3ccccc23)cc1 | inactive |
| CC(C)Cn1cc(C(=O)N2CCN(c3ccccn3)CC2)c2c3ccccc3n(C)c2c1=O | inconclusive: 20 µM [inhibitor, partial curve] |
| COc1ccc(S(=O)(=O)N[C@H](C(=O)N2CC[C@@]3(O)CCCC[C@H]3C2)c2ccccc2)cc1 | inactive |
| COc1ccc(OC)c(-c2csc(NC(=O)Cc3cccs3)n2)c1 | inconclusive: 2 µM [inhibitor, full curve, poor fit] |
| CSc1ccc(/C=N/NC(=O)CN2CCN(Cc3ccccc3Cl)CC2)cc1 | inconclusive: 7.94 µM [inhibitor, partial curve] |
| O=C(CNC(=O)c1ccccc1)OCC(=O)N1N=C(c2ccc(Cl)cc2)CC1c1ccco1 (stereo unspecified) | inconclusive: 25.1 µM [inhibitor, single point] |

| Compound | Potency |
| --- | --- |
| CCC1=C2CC[C@H]3C(=O)N(CC(=O)OC)C(=O)[C@H]3[C@H]2[C@@]2(Cc3ccccc3)C(=NCCOC)OC(=O)N2C1=O | inactive |
| O=c1[nH]c(/C=C/c2cccnc2)c([N+](=O)[O-])c(=O)[nH]1 | inconclusive: 25.1 µM [inhibitor, partial curve] |
| COCCn1c(C)cc(O)c(C(c2cccc(F)c2)N2CCN(c3ccccc3)CC2)c1=O (stereo unspecified) | inconclusive: 10 µM [inhibitor, partial curve] |
| Cc1ccc(Nc2nc(-c3ccc(O)c(O)c3)cs2)nc1 | active: 10 µM |
| Cc1ccc(OCCCC(=O)Nc2sc3c(c2C(N)=O)CCC(C)C3)cc1 (stereo unspecified) | inactive |
| CCOC(=O)c1c(-c2ccc(C)o2)csc1NC(=O)CN(C)CC(=O)Nc1ccc(C)cc1 | inconclusive: 11.2 µM [inhibitor, partial curve] |
| O=C(COC(=O)CNC(=O)c1ccc(Br)o1)Nc1ccccc1OC(F)F | inactive |
| Cc1ccccc1Nc1nc(N)nc(COC(=O)/C=C/c2ccco2)n1 | inconclusive: 17.8 µM [inhibitor, single point] |
| NCCC(=O)c1ccccc1N | inconclusive: 20 µM [inhibitor, partial curve, poor fit] |
| CCOC(=O)C(NC(=O)CC)(Nc1ccccc1)C(F)(F)F (stereo unspecified) | inconclusive: 15.8 µM [inhibitor, partial curve] |
| CCCN(c1ccccc1F)S(=O)(=O)c1cc(-c2cc(C)no2)ccc1C | inactive |
| CCSC(=S)c1c(C)[nH]n(-c2ccccc2)c1=O | inconclusive: 3.55 µM [inhibitor, partial curve] |
| Nc1cc2c(cc1C(=O)c1ccc(Cl)cc1)OCCO2 | inconclusive: 28.2 µM [inhibitor, partial curve] |
| COc1ccc(/C=C/C(=O)c2ccccc2)cc1COc1ccccc1F | inactive |
| COc1ccc(/C=C2\CCc3c2nc2ccccc2c3C(=O)O)cc1OC | inconclusive: 39.8 µM [inhibitor, single point] |
| Cc1nc2c([nH]1)C1(CCN(Cc3ccccc3)CC1)C(C#N)=C(N)O2 | inconclusive: 20 µM [inhibitor, partial curve] |
| CCC(C(=O)NCCc1ccc(OC)c(OC)c1)n1nc(C)c2sc3ccccc3c2c1=O (stereo unspecified) | inconclusive: 2.82 µM [inhibitor, full curve] |
| CC(=O)Nc1cccc(OCC(=O)Nc2sccc2C(N)=O)c1 | inconclusive: 14.1 µM [inhibitor, single point] |
| C=CCn1cnc2c(c1=O)c1nc3ccccc3nc1n2/N=C/c1cc(OC)c(OC)c(OC)c1 | inconclusive: 39.8 µM [inhibitor, single point] |
| Cc1ccc(OCC(=O)OCc2cc(=O)n3nc(C4CC4)sc3n2)cc1C | inactive |
| Cc1c(-c2ccccc2)nc(N)c(C#N)c1-c1ccco1 | inactive |
| NNc1nc2ccc(F)cc2s1 | active: 25.1 µM |
| N#CCC(=N)N1CCN(c2ccccc2)CC1 | inconclusive: 22.4 µM [inhibitor, partial curve] |
| C=CCN1C(c2ccc(Br)cc2)=CS/C1=C(/C#N)c1nnc(N2CCOCC2)n1-c1ccccc1 | inconclusive: 22.4 µM [inhibitor, partial curve] |

| Compound | Potency |
| --- | --- |
| CC(=O)N1CCc2cc(Br)cc(S(=O)(=O)CCC(=O)N3CCN(c4cccc(C)c4C)CC3)c21 | inconclusive: 12.6 µM [inhibitor, partial curve] |
| CCCN1CNc2c(c(=O)[nH]c(=S)n2-c2ccc(Cl)cc2)C1 | inconclusive: 31.6 µM [inhibitor, single point] |
| Cc1cc(C(C)(C)C)oc1C(=O)N(CC(=O)NC1CCCC1)Cc1ccccc1Cl | inconclusive: 20 µM [inhibitor, partial curve] |
| CCOC(=O)C1=C(Cc2ccc(C)cc2)C(=O)c2ccccc2C1=O | active: 15.8 µM |
| COCCN(Cc1ccc(C)c(Br)c1)S(=O)(=O)c1ccc2[nH]c(=O)ccc2c1 | inactive |
| COC(=O)CSc1nc(N)c2c3c(sc2n1)CCCC3 | inconclusive: 25.1 µM [inhibitor, single point] |
| O=C1/C(=C\c2cccnc2)Sc2ccccc21 | inconclusive: 14.1 µM [inhibitor, partial curve] |
| O=c1cc(N2CCCCC2)c(-c2ccccc2)nn1Cc1ccc(Cl)cc1 | inconclusive: 31.6 µM [inhibitor, single point] |
| Cc1ccc(-n2c(N)c(C(=O)N3CCOCC3)sc2=S)cc1 | inactive |
| O=C(NCCCO)/C(=C/c1ccc(-c2cccc([N+](=O)[O-])c2)o1)NC(=O)c1ccccc1 | inconclusive: 3.16 µM [activator, single point] |
| Cc1ccc(OCc2ccc(C(=O)NN)o2)c([N+](=O)[O-])c1 | inconclusive: 12.6 µM [inhibitor, partial curve, poor fit] |
| CCCN(CCC)c1cc(C)nc2nc(-c3ccc(C(C)(C)C)cc3)nn12 | inconclusive: 35.5 µM [inhibitor, single point] |
| Clc1ccc(C2[C@H]3CN(Cc4ccc(-c5ccccc5)cc4)[C@H](c4ccccc4)C34CC2(c2cccnc2)C4)cn1 (stereo partly specified) | inconclusive: 39.8 µM [inhibitor, single point] |
| Cc1nc(SCc2ccccc2)c2ccsc2n1 | inconclusive: 14.1 µM [inhibitor, partial curve] |
| CN(C)c1ccc(-c2nc3ccc(Cl)cn3c2Nc2ccc3c(c2)OCCO3)cc1 | inconclusive: 0.199 µM [inhibitor, full curve, poor fit] |
| Cc1c(C(=O)O)nn(-c2ccccc2)c(=O)c1C#N | inactive |
| Cc1ccc(NC(=S)NNC(=S)Nc2ccc(C)cc2C)cc1 | inactive |
| Cn1c(N2CCOCC2)nc(-c2ccccc2)c1-c1ccccc1 | inactive |
| O=C(O)c1cc(O)c2c(c1)C(=O)c1cc(O)cc(O)c1C2=O | active: 7.08 µM |
| Cc1cc[n+](-c2[nH]c(=O)sc2/C=N/N=C(\[O-])c2ccccc2)cc1C | inconclusive: 12.6 µM [inhibitor, partial curve, poor fit] |
| CCOc1ccc(/C=C/c2nc(C#N)c(NCc3ccc(OC)cc3)o2)cc1 | inactive |
| COc1cc2nc(=S)n3[nH]c(COc4ccccc4C)nc3c2cc1OC | inactive |
| CCCNC(=O)c1nnsc1S(=O)(=O)c1ccc(Cl)cc1 | inconclusive: 39.8 µM [activator, single point] |
